# Toxic doses and inconclusive results are not listed. Certain results were filed several times, with different values. The list is limited to them. The source may hold further records. Results that share an entry differ, and nothing given here explains why; they may come from other doses, times, organisms or constructs than stated.
# Tested on: L1210 leukemia ip in BDF1 mice, survival T/C
# Assay: NCI In Vivo Anticancer Drug Screen. Data for tumor model L1210 Leukemia (intraperitoneal) in B6D2F1 (BDF1) mice
# Conditions: endpoint: mean survival time, higher = longer survival
structure (smiles),measurement,setting,value
O=C1CCC(=O)N1CCc1csc2ccccc12,T/C,"dose: 400.0 mg/kg/injection, schedule: Q01DX001 (ip), vehicle: carboxymethylcellulose (CMC)","92 % of control, 95 % of control, 158 % of control"
Cc1cccc(NC(=O)N(CCCl)N=O)c1,T/C,"dose: 9.0 mg/kg/injection, schedule: Q01DX009 (ip), vehicle: carboxymethylcellulose (CMC)",124 % of control and 180 % of control
O=C1C(N2CCOCC2)=C(c2ccccc2)c2ccccc21,T/C,"dose: 25.0 mg/kg/injection, schedule: Q01DX009 (ip), vehicle: other","90 % of control, 101 % of control, 459 % of control"
O=CC(NC(=O)N(CCCl)N=O)C(O)C(O)C(O)CO (centres undefined),T/C,"dose: 45.0 mg/kg/injection, schedule: Q01DX001 (ip), vehicle: saline",120 % of control and 194 % of control

# — PubChem BioAssay AID248 (DTP/NCI, 2004)
